The RNAGym collection of RNA variant scans (doi:10.1093/nar/gkz1192)
Read counts are not given, so values of variants with three or more changes are uncertain.

B1: CPEB3 Ribozyme (parent)
chain: UAACAGGGGGCCACAGCAGAAGCGUUCACGUCGCAGCCCCUGUCAGAUUCUGGUGAAUCUGCGAAUUCUGCUGUAUAUCUC

Variants of: B1
Assay: self-cleavage, relative activity (ratio to wild type); higher = more cleavage; in vitro, sequencing
How it was run: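 Relative activity compares each variant's cleaved/total read fraction with that of the unmutated ribozyme. To get these fractions, barcoded CPEB3 ribozyme libraries from rounds of error-prone PCR were transcribed with T7 RNA polymerase for 5 hours at 37°C and then given 15 min of DNase I treatment before EDTA was added. The RNAs were reverse transcribed with template switching and sequenced on Illumina, and DNA sequencing linked barcodes to variants. A minimum of 5 reads applied, and three batches were averaged.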

Variant	self-cleavage
U1A G33U C62U A77U	0.2
U1A G33U G46A	0.22
U1A G33U U69A	0.16
U1A G52A C68U	0.95
U1A G52A U76C	1.11
U1A G53A U66C A77U	0.21
U1A U25A A28G U69C	0.25
U1A U25A A35G	0.07
U1A U25A A56U	0.34
U1A U25A C34U U43C U58C A64U	0.07
U1A U25A C38U C39A A65G A77G	0.05
U1A U25A U26G A65G	0.14
U1A U25A U41A U54C U74A	0.26
U1A U25A U60C U67C	0.08
U1A U25C A35G A47G	0.22
U1A U25C A35G U69G	0.11
U1A U25C A47G A65U U66C	0.21
U1A U25C A57G U78C C79A	0.23
U1A U25C G42C	0.33
U1A U25C U31C U72C	0.07
U1A U25C U31G U69C A75U U80C	0.11
U1A U25C U43A A64U	0.1
U1A U25C U72C	0.25
U1A U25C U78C	0.1

Variant	self-cleavage
U1A U26A C44A	0.44
U1A U26A U41A	0.08
U1A U26C A28G	0.26
U1A U26C A28G A35G U54A	0.19
U1A U26C A35C C62A U69G	0.14
U1A U26C A35G A56G U67C	0.53
U1A U26C A35G U49A U72C	0.77
U1A U26C A35U A45U U51C A56G	0.13
U1A U26C A45C G46A U78A	0.63
U1A U26C A57G	0.39
U1A U26C C32A U60A U72G	0.08
U1A U26C C38U G42A A45G	0.18
U1A U26C U31C U72A	0.21
U1A U26C U48C G53A U80A	0.14
U1A U31A A35U U72C A77U U80C	0.3
U1A U31A U54A	0.67
U1A U31C A35U U58C	0.34
U1A U31C A45C U72C	0.34
U1A U31C U54C A65G	0.1
U1A U41A U48C	0.31
U1A U41A U51G	0.06
U1A U41A U51G A64G	0.72
U1A U41A U54A U58C	0.21
U1A U41A U54C G63A	0.39

Variant	self-cleavage
U1A U41C A56G U60A U72C	0.16
U1A U41C A65G	0.56
U1A U41C C50U U51A U72C	0.84
U1A U41C U49C U51C A57G U67C	0.2
U1A U41C U51A C62U U72C	0.26
U1A U41C U54G	0.6
U1A U41C U58C U74A A77U	0.61
U1A U41C U72C	1.03
U1A U41C U74C	1.08
U1A U41C U80C C81U	1.1
U1A U41G U60C U66A A75G U76C	0.06
U1A U43A U51C	1.09
U1A U43A U58C	0.77
U1A U43C U69C U80C	0.22
U1A U48C A57G A64U A65U	0.18
U1A U48C A64U U69C	0.28
U1A U48C G52A U78C	0.85
U1A U48C U60C	0.17
U1A U49A A64U	0.17
U1A U49C A64G	0.3
U1A U49C A64G U80C	0.28
U1A U49C C71U U76C	0.15
U1A U49C U80C	0.5
U1A U51C A56G U60A U80C	0.5

Variant	self-cleavage
U1A U54C G55C U60G	0.14
U1A U54G U67C	0.18
U1A U60C U76C U78C	0.34
U1A U67C U69C U72A	0.21
U1A U72A U74A	0.93
U1C A2C C12A A13G C44A A56G	0.08
U1C A2G A5G A21C G33A U80C	0.5
U1C A2G A5U U43G U72A	0.08
U1C A2G A15G A18G	0.61
U1C A2G A18G C32A A35U C37A U67A	0.05
U1C A2G A18U U51C A64G	0.15
U1C A2G A20G A64G	0.66
U1C A2G A20G U41A U49C U60C A64G	0.29
U1C A2G A45G U49A G53C G73U A75U	0.57
U1C A2G A64G U69C	0.46
U1C A2G C11G A57G	0.11
U1C A2G C11U U41A A77G	0.26
U1C A2G C32A A35G C79A U80C	0.26
U1C A2G C39A U43C U80A	0.12
U1C A2G C44U U66A	0.41
U1C A2G G6A	0.4
U1C A2G G6A A15G A75G	0.05
U1C A2G G6U A15G U78C	0.1
U1C A2G G7U A28G C44U U67A	0.05

Variant	self-cleavage
U1C A2G G10A A35U U69C	0.22
U1C A2G G10A A35U U80C	0.06
U1C A2G U25C	0.23
U1C A2G U25C A47G U60C	0.64
U1C A2G U25C C32U C37A A47G	0.05
U1C A2G U26C A35G U49C	0.07
U1C A2G U43A	0.79
U1C A2G U51C	0.85
U1C A2G U54C	0.71
U1C A2G U60C	0.42
U1C A2U A3U G7C C34U A75G	0.06
U1C A2U A13U U54C U58C	0.17
U1C A2U A15G A18U A35U A75U	0.05
U1C A2U A18U G33A G42C	0.2
U1C A2U A20U A35U A75U	0.24
U1C A2U A21G U25C A28G C40U U51C	0.03
U1C A2U A21U A28G A45U A56G A75U	0.04
U1C A2U A28G U58C U80A	0.25
U1C A2U A28G U60A G63A U80A	0.19
U1C A2U A28U A56C	0.23
U1C A2U A45G	0.49
U1C A2U C17A	0.41
U1C A2U G6U A21G U25C	0.38
U1C A2U G6U C39A U72C	0.23

Variant	self-cleavage
U1C A2U G9U A64G U69C	0.16
U1C A2U G22A C40U U43C U67C	0.05
U1C A2U U25C U49C U60C	0.06
U1C A2U U26A U49C	0.26
U1C A2U U31A A77G	0.39
U1C A2U U43C U54C G61A A65G	0.11
U1C A2U U72A	0.76
U1C A3C A15G	0.59
U1C A3C C11U U31A U41C	0.53
U1C A3G A5G A57C C59U U69C	0.35
U1C A3G A5U A18U C23U U58C U72A	0.04
U1C A3G A5U G36A U41A A45U U72A	0.09
U1C A3G A13C C37A U80C	0.1
U1C A3G A13G U25C C29G U41C A64U	0.09
U1C A3G A18U	0.67
U1C A3G A18U A20G U25A U26A C44U	0.07
U1C A3G A20G A28G G33A A45U U48C	0.05
U1C A3G A20G U43C	0.14
U1C A3G A20U U43A	0.51
U1C A3G A21C U31C U49C U60C	0
U1C A3G A21G	0.8
U1C A3G A21G U26C A35G G70U	0.07
U1C A3G A21G U26G G30A A75U	0.58
U1C A3G A21G U41A	0.56

Variant	self-cleavage
U1C A3G A28G C34U U41G U67C U78C	0.6
U1C A3G A45G A64G	0.37
U1C A3G A56G U72C	0.75
U1C A3G A57U U66G	0.19
U1C A3G A64G	0.36
U1C A3G C17U A28G A35C A64G U72A	0.04
U1C A3G C17U G53A	0.4
U1C A3G C37U A65G U67A	0.09
U1C A3G G9A A65G	0.06
U1C A3G G10A C11U U31A A57G U66G	0.06
U1C A3G G10A G22A U25C U54C C62U	0.04
U1C A3G G16A G30A	0.34
U1C A3G G33C U54G	0.33
U1C A3G G33C U74C	0.51
U1C A3G G73U	1.22
U1C A3G U25A G63A	0.12
U1C A3G U31G	0.62
U1C A3G U51A U80C	0.69
U1C A3G U80A	1.12
U1C A3U A13U U66C	0.23
U1C A3U A18G A57G A64U	0.1
U1C A3U A18G U80A	0.99
U1C A5C A13G U25C A35G U49A	0
